Data reported in PubChem BioAssay AID2675 (National Center for Advancing Translational Sciences (NCATS), 2010).
About 100 (0.036%) of roughly 280,000 compounds were called active. Inconclusive means that the source gave no clear call. Such entries were picked first, then a sample of the others. Calls come from the whole dose curve; as a rule, active = well fitted inhibition curve with a large enough effect in the signal ratio, with a control signal flat (not every such curve was filed as active); inconclusive = small, poorly fitted or top-dose-only effect, or effect the other way, or a change in a side signal; inactive = no such curve, though single readings can be large or run the other way; the % refers to the signal ratio. A potency beside an inconclusive call is a rough fit, not a confirmed value. A note “side channel” means that the fit belongs to a control or component signal, not to the main read-out.

Target: Muscleblind-like protein 1 (Homo sapiens) (UniProt Q9NR56)
Chain of UniProt Q9NR56 (Q9NR56 whole entry, looked up): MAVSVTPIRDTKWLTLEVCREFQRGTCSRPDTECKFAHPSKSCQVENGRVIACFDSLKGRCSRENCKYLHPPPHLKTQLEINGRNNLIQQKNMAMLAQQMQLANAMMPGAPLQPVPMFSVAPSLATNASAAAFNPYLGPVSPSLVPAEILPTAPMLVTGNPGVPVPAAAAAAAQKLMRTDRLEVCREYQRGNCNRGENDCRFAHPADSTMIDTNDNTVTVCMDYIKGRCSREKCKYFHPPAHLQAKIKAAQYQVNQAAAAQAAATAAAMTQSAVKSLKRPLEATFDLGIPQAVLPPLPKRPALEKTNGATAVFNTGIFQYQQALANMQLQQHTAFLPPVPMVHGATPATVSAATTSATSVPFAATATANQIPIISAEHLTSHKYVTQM
Experiment: qHTS Assay for Inhibitors of MBNL1-poly(CUG) RNA binding
Conditions: TR-FRET MBNL1-His/biotin-(CUG)12 binding, 665/545 ratio; series mostly up to 57.5 µM
Method in brief: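 Inhibition of protein-RNA binding appears as loss of TR-FRET between terbium anti-His antibody on MBNL1-His and streptavidin-XL665 on biotin-(CUG)12. Activity is normalized to buffer-only and uninhibited-complex controls.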
Potency is the fitted concentration of half-maximal effect; tags give direction and shape of the fitted curve or compound fluorescence and quenching.

Compound | Potency
O=C1CC(C2CCCO2)C(=O)N1c1ccc(Cl)c(Cl)c1 (stereo unspecified) | inactive
COc1ccc(C2=CC(c3ccc(Cl)cc3)n3cnnc3N2)cc1OC (stereo unspecified) | inconclusive: 28.2 µM [quencher, side channel, partial curve]
N#Cc1cc(-c2ccccc2)nnc1Sc1ccc(F)cc1 | inconclusive: 3.98 µM [quencher, side channel, full curve, poor fit]
CC(=O)Nc1ccc(-c2csc(-c3cccnc3)n2)cc1 | inconclusive: 25.1 µM [quencher, side channel, partial curve]
Cc1cc(NC(=O)c2ccc([N+](=O)[O-])cc2)n(C)n1 | inconclusive: 11.2 µM [quencher, side channel, partial curve]
CS(=O)(=O)N(CC(=O)Nc1cccnc1)c1ccc2c(c1)OCO2 | inconclusive: 25.1 µM [fluorescent, side channel, partial curve, poor fit]
O=C1C(=O)N(CCN2CCOCC2)C(c2ccccn2)/C1=C(/O)c1ccccc1 (stereo unspecified) | inconclusive: 10 µM [quencher, side channel, partial curve]
O=C(Nc1cccc2ncccc12)c1ccc(Br)c([N+](=O)[O-])c1 | inconclusive: 14.1 µM [quencher, side channel, partial curve]
Cn1c(SCC(=O)Nc2ccc3cn[nH]c3c2)nnc1-c1cnccn1 | inactive
COC(=O)CCCC1=CC2=CC(=O)C(C)(OC(=O)c3cccs3)C(=O)C2=CN1c1cccc(C#N)c1 (stereo unspecified) | inconclusive: 12.6 µM [quencher, side channel, partial curve]
COC(=O)c1nn(-c2ccc(OC)cc2)c(=O)cc1Oc1cccc(Cl)c1 | inconclusive: 20 µM [quencher, side channel, partial curve]
NC(=S)NNc1cccc2cccnc12 | inconclusive: 11.2 µM [quencher, side channel, partial curve]
CCOC(=O)/C(C#N)=C\c1cccnc1 | inactive
CCCOc1ccc2ccccc2c1/C=N/n1cnnc1 | inconclusive: 28.2 µM [quencher, single point]
Cn1c(SCC(=O)N2CCN(c3ccccc3)CC2)nnc1-c1c[nH]c2ccccc12 | inactive
COc1cc(N2CCCC2)ccc1[N+](=O)[O-] | inconclusive: 6.31 µM [quencher, side channel, single point]
CCCCCn1c(N2CCN(Cc3ccccc3)CC2)nc2c1c(=O)[nH]c(=O)n2C | inactive
N#Cc1ccc(N2CCOCC2)c([N+](=O)[O-])c1 | inconclusive: 25.1 µM [quencher, side channel, partial curve]
Cc1cccc(NC(=O)c2ccc(-n3ccnc3)nc2)c1 | inconclusive: 35.5 µM [quencher, side channel, single point]
CC1CCCC(C)N1C(=O)c1ccc2c(c1)S(=O)(=O)c1ccccc1C2=O (stereo unspecified) | inconclusive: 4.47 µM [quencher, side channel, partial curve]
O=C(NNc1nc2c(F)cc(F)cc2s1)c1ccccc1 | inactive

Compound | Potency
CCOC(=O)C1C(=O)CC(C)(O)C(C(=O)OCC)C1c1ccc(OC)cc1 (stereo unspecified) | inactive
O=C(CCNC(=O)c1ccccc1)N=Nc1c(O)[nH]c2ccccc12 | inconclusive: 15.8 µM [quencher, side channel, partial curve]
CN1CCN(c2cc(N3CCc4ccccc4C3)c(F)cc2[N+](=O)[O-])CC1 | inconclusive: 12.6 µM [quencher, side channel, partial curve]
O=C(NC1=C(Nc2ccc(F)cc2)C(=O)c2ccccc2C1=O)c1ccc(Cl)cc1 | inconclusive: 0.355 µM [quencher, side channel, full curve, poor fit]
CCN1CCN(c2nc3ccccn3c(=O)c2/C=C(\C#N)S(=O)(=O)c2ccccc2)CC1 | inconclusive: 14.1 µM [quencher, partial curve]
O=C1CCc2cc(S(=O)(=O)N3CCC(C(=O)NC4CCCC4)CC3)ccc2N1 | inactive
COc1ccc(OC)c(S(=O)(=O)N2CCN(c3c(C)cccc3C)CC2)c1 | inconclusive: 7.94 µM [quencher, side channel, single point]
Oc1ccc(C(=S)N2CCN(c3cccc(Cl)c3)CC2)cc1 | inactive
CCOc1ccc2nc3sc(C(=O)N4CCN(C)CC4)c(N)c3cc2c1 | inconclusive: 12.6 µM [quencher, side channel, partial curve]
COc1ccccc1CC(=O)N1CCN(c2ccc([N+](=O)[O-])cc2)CC1 | inconclusive: 14.1 µM [quencher, side channel, partial curve]
O=C(NCCN1CCOCC1)C(=O)NCC1OCCN1S(=O)(=O)c1ccccc1 (stereo unspecified) | inactive
O=C(NC(=S)NNC(=O)[C@H]1C[C@@H]1c1ccccc1)c1cccc(F)c1 | inactive
Cc1ccc2nc(NCc3ccco3)c(C=NCc3ccco3)c(=O)n2c1 | inconclusive: 17.8 µM [quencher, side channel, partial curve]
COc1cc(/C=C2\SC(=Nc3ccc(N4CCOCC4)cc3)N(C)C2=O)ccc1OC(C)C(=O)O (stereo unspecified) | inconclusive: 10 µM [quencher, partial curve]
COc1cccc(CN(C)CC(=O)Nc2cc3oc4ccccc4c3cc2OC)c1 | inconclusive: 2.82 µM [fluorescent, side channel, partial curve]
O=C(NCc1ccco1)Nc1ccc2nsnc2c1 | inconclusive: 10 µM [quencher, side channel, partial curve]
O=[N+]([O-])c1ccccc1/C=C/C=N/n1c(-c2ccccc2F)n[nH]c1=S | inconclusive: 28.2 µM [quencher, side channel, single point]
Cc1cc(C)c(OCC(=O)N(Cc2ccccc2)C2CCS(=O)(=O)C2)c(C)c1 (stereo unspecified) | inactive
OCC1(Cc2ccc(Cl)cc2)CCN(Cc2ccc3nsnc3c2)CC1 | inconclusive: 14.1 µM [quencher, side channel, partial curve]
Cc1ccc(S(=O)(=O)Cc2ccc([N+](=O)[O-])cc2)cc1 | inconclusive: 17.8 µM [quencher, side channel, partial curve]
O=C(O)c1ccc(CN2C(=O)c3ccc(C(=O)O)cc3C2=O)cc1 | inconclusive: 14.1 µM [quencher, side channel, partial curve]

Compound | Potency
CC(=O)Nc1ccc(NC(=O)c2cc([N+](=O)[O-])cc([N+](=O)[O-])c2)cc1 | inconclusive: 4.47 µM [quencher, side channel, partial curve]
COC(=O)c1ccccc1NC1=C/C(=N\S(=O)(=O)c2cccs2)c2ccccc2C1=O | inconclusive: 10 µM [quencher, side channel, partial curve]
COC(=O)c1cc2c(N)c(C(=O)c3ccccc3)sc2nc1C(OC)OC | inconclusive: 12.6 µM [quencher, side channel, partial curve]
CC(C)(C)NS(=O)(=O)c1ccc(NC(=O)C2CC(=O)N(CCc3ccc(F)cc3)C2)cc1 (stereo unspecified) | inconclusive: 126 µM [inhibitor, partial curve]
O=C(CCCN1C(=O)/C(=C\c2ccccc2)SC1=S)Nc1ccc(O)cc1C(=O)O | inconclusive: 25.1 µM [quencher, side channel, single point]
Cc1ccc(CNc2ncnc(N)c2[N+](=O)[O-])cc1 | inactive
CC1(OC(=O)CCc2ccccc2)C(=O)C=C2C=C(c3ccc(C#N)cc3)N(C3CCCCC3)C=C2C1=O (stereo unspecified) | inconclusive: 28.2 µM [quencher, side channel, single point]
NC(=O)c1ccccc1NC(=O)Nc1cccc(Cl)c1 | inactive
COc1ccc(N2CC(O)=C(c3nc(C)cs3)C2=N)cc1 | inactive
CCN1/C(=C2/SC(=S)N(NC(C)=O)C2=O)Sc2ccc(OC)cc21 | inconclusive: 12.6 µM [quencher, side channel, partial curve]
O=C(O)c1cccc(-c2nnn(Cc3ccccc3Cl)n2)c1 | inconclusive: 39.8 µM [quencher, side channel, single point]
COc1ccc2cc(C(=O)c3ccccc3)c(=O)oc2c1 | inconclusive: 15.8 µM [quencher, side channel, partial curve]
O=C(N/N=C/c1cc(Cl)ccc1O)C(=O)Nc1ccccc1OC(F)(F)C(F)F | inconclusive: 5.62 µM [fluorescent, side channel, full curve, poor fit]
CCOCCCNC(=O)c1ccc2c(c1)OCO2 | inconclusive: 31.6 µM [quencher, side channel, single point]
NC(=O)C1CCN(C2=C(NS(=O)(=O)c3ccc(Cl)cc3)C(=O)c3ccccc3C2=O)CC1 | inconclusive: 3.16 µM [quencher, side channel, partial curve]
Cc1ccc(CN=c2c([N+](=O)[O-])nn(-c3cccc(C)c3)n2O)cc1 | inconclusive: 11.2 µM [quencher, side channel, partial curve]
NC(=O)c1ccc2c(c1)OCCO2 | inactive
Cc1ccc(-c2nc3ccc([N+](=O)[O-])cc3[nH]2)cc1 | inconclusive: 28.2 µM [quencher, side channel, partial curve]
N#Cc1cccc(NC(=O)Cn2cnc(S(=O)(=O)N3CCCC3)c2)c1 | inactive
